# Data from PubChem BioAssay AID2546 (National Center for Advancing Translational Sciences (NCATS), 2010).
# Among all 310,000 compounds or so, about 11,000 (3.5%) were called active. Inconclusive results, whose numbers are uncertain, are shown with a selection of clear calls. Calls come from the whole dose curve; as a rule, active = well fitted inhibition curve with a large enough effect; inconclusive = small, poorly fitted or top-dose-only effect, or effect the other way; inactive = flat fitted curve, though single readings scatter. No potency is given beside an inconclusive call; the fits are too rough.
# Assay: VP16 counterscreen qHTS for inhibitors of ROR gamma transcriptional activity;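 note: Gal4-VP16 expression switched on by copper sulfate through the metallothionein promoter; nearly all actives have a fitted effect of over 50% in size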
# Details: Drosophila S2 Gal4-VP16 UAS-luciferase, luminescence, 20 h; series mostly up to 53.6 µM
# Potency is the fitted concentration of half-maximal effect; tags give direction and shape of the fitted curve.
row,SMILES,Potency
1,Cc1ccccc1Oc1nc2c(C)cccn2c(=O)c1/C=C(\C#N)C(=O)Nc1c(C)n(C)n(-c2ccccc2)c1=O,"inconclusive [inhibitor, single point]"
2,O=C1NC(=Nc2cccnc2)S/C1=C/c1ccc(F)cc1,inactive
3,N/C(=N\OC(=O)CCN1C(=O)c2ccccc2C1=O)c1ccccn1,"inconclusive [activator, partial curve]"
4,O=[N+]([O-])c1ccc2c(c1)C(O)n1nc(-c3ccc(Cl)cc3Cl)nc1S2 (stereo not drawn),"inconclusive [inhibitor, single point]"
5,O=C(COc1ccc2ccccc2c1)Nc1ccc(Br)cc1C(=O)O,"inconclusive [inhibitor, partial curve]"
6,C=C(C)CNC(=S)Nc1cccc2cnccc12,inactive
7,CCOc1ccc(C(=O)Nc2nnc(SCC(=O)NCC3CCCO3)s2)cc1 (stereo not drawn),active: 3.55 µM
8,CC1=NN(c2ccccc2)C(=O)C1C(=O)c1cc([N+](=O)[O-])cc([N+](=O)[O-])c1 (stereo not drawn),"inconclusive [inhibitor, single point]"
9,O=S(=O)(NC1CCCCC1Oc1ccccc1)c1ccc(Cl)cc1 (stereo not drawn),inactive
10,COc1ccc(-c2cc(C(=O)Nc3ccc(C)c(C)c3)no2)cc1,inactive
11,O=c1c2cc(Br)ccc2[nH]c(=S)n1Cc1cccnc1,"inconclusive [inhibitor, single point]"
12,CC1CCc2nc(NC(=O)C3COc4ccccc4O3)sc2C1 (stereo not drawn),active: 10 µM
13,O=C(Nc1ccc(Oc2cccc3ccccc23)cc1)c1ccco1,"inconclusive [inhibitor, single point]"
14,CCCCSc1ncc(C(=O)OCC)c(N)n1,"inconclusive [activator, single point]"
15,CCCn1c(=O)[nH]c(=O)c2c1nc(-c1ccc(OC(F)F)c(OC)c1)n2CCOC,inactive
16,Cc1ccc(NC(=O)CCCc2nc3ccccc3s2)c(O)c1,inactive
17,O=S(=O)(Nc1ncccn1)c1ccc(NC(=S)N2CCN(Cc3ccc(F)cc3Cl)CC2)cc1,inactive
18,CN(CCOC(=O)CN1C(=O)c2ccccc2C1=O)C1=NS(=O)(=O)c2ccccc21,inactive
19,COc1ccc2oc(=O)c(-c3cn4ccc(C)cc4n3)cc2c1,inactive
20,O=C(O)CC1=C(Nc2ccccc2)C(=O)N(c2ccccc2)C1c1ccc(F)cc1 (stereo not drawn),"inconclusive [activator, partial curve]"
21,CON/C=N/C(=S)Nc1ncc(C(F)(F)F)cc1Cl,"inconclusive [inhibitor, single point]"
22,CCOC(=O)c1cc(-c2ccco2)nc2c1c(C)nn2-c1ccccc1,"inconclusive [inhibitor, partial curve, poor fit]"
23,CNC(=O)NC(=O)COC(=O)CCCSc1nc2ccccc2s1,"inconclusive [inhibitor, partial curve]"
24,CCOC(=O)C(=CN=C(N)Nc1nc2ccccc2o1)C(=O)OCC,"inconclusive [inhibitor, partial curve]"
25,CCN(CC)C(=S)S,active: 3.55 µM

row,SMILES,Potency
1,COc1ccc(Cn2c(-c3ccc(OC)cc3)nc3ccccc32)cc1,"inconclusive [inhibitor, single point]"
2,NC(=O)c1c(NC(=O)CCCn2cnc([N+](=O)[O-])n2)sc2c1CCCC2,inactive
3,O=C(CCN1C(=O)/C(=C/c2cccs2)SC1=S)NNC(=O)c1cccc(O)c1,"inconclusive [inhibitor, partial curve, poor fit]"
4,Cc1cc(C)n(-c2ccn(Cc3ccc(Cl)cc3Cl)c(=O)n2)n1,inactive
5,COc1ccccc1NC(=O)C(Sc1ccccc1)c1ccccc1 (stereo not drawn),"inconclusive [inhibitor, single point]"
6,Cc1ccc(OCC(=O)N/N=C/c2cccn2C)cc1C,"inconclusive [inhibitor, full curve]"
7,Cc1nn(Cc2ccc(Cl)c(Cl)c2)c(C)c1NC(=O)c1cc(-c2ccc3c(c2)OCO3)on1,inactive
8,O=C(/C(=N\Nc1ccc(Br)cc1)Sc1nnnn1-c1ccccc1)c1ccccc1,"inconclusive [inhibitor, single point]"
9,CS(=O)(=O)Nc1cccc2cccnc12,active: 7.94 µM
10,CCOC(=O)c1c(NC(=O)CN2CCCc3ccccc32)sc(C)c1CC,"inconclusive [inhibitor, single point]"
11,COc1ccc(C(=O)CC(=O)C(=O)NCCc2cccc(C)c2)cc1,"inconclusive [inhibitor, partial curve, poor fit]"
12,O=C(CSc1nc(-c2cccs2)cc(C(F)(F)F)n1)Nc1cc(OCC(F)(F)C(F)F)cc([N+](=O)[O-])c1,inactive
13,COc1ccc(C)c2sc(NC(=O)CCS(=O)(=O)c3ccccc3)nc12,"inconclusive [inhibitor, single point]"
14,Cc1occc1C(=O)N/N=C/C=C/c1ccccc1[N+](=O)[O-],"inconclusive [inhibitor, single point]"
15,FC(F)(F)C(Oc1nc(NC2CCCCC2)nc(N2CCOCC2)n1)C(F)(F)F,"inconclusive [inhibitor, single point]"
16,O=C(NC(=S)Nc1ccccc1)c1csnn1,"inconclusive [inhibitor, single point]"
17,COc1ccc(CNC(=O)C(=O)NCc2ccncc2)cc1,inactive
18,CCCCOc1ccc(C(=O)Nc2cccc(C)n2)cc1,"inconclusive [inhibitor, single point]"
19,Cc1ccc2[nH]c(=O)c(CN(CCCN3CCOCC3)C(=O)Nc3cccc(Cl)c3)cc2c1,"inconclusive [activator, single point]"
20,Cc1c(C)n(-c2ccccc2)c2ncnc(NCCN(C)C)c12,inactive
21,COc1cccc(N2C(=O)/C(=C\c3cccs3)NC2=S)c1,"inconclusive [inhibitor, partial curve]"
22,CCNc1ncc2nc(-c3ccc(F)cc3)c(=O)n(-c3ccccc3)c2n1,"inconclusive [inhibitor, single point]"
23,COc1ccc(NC(=S)Nc2ncccc2C)c(OC)c1,active: 10 µM
24,Cc1ccc(-n2nnc(-c3nccs3)n2)cc1,active: 5.62 µM
25,O=C(CNC(=O)c1[nH]cnc1C(=O)N[C@@H](Cc1ccccc1)C(=O)OCc1ccccc1)OCc1ccccc1,"inconclusive [inhibitor, single point]"

row,SMILES,Potency
1,Cc1cc(C)n(-c2nc(NCC3CCCO3)c3c4c(sc3n2)COC(C)(C)C4)n1 (stereo not drawn),active: 3.16 µM
2,NS(=O)(=O)c1ccc(N2N=C(c3ccc(Br)cc3)CC2c2ccc(F)cc2)cc1 (stereo not drawn),"inconclusive [inhibitor, single point]"
3,O=C(O)c1ccc2nc(-c3ccccc3)sc2c1,active: 2.51 µM
4,O=C(CCc1ccccc1)N/N=C\c1cc2c(cc1Br)OCO2,"inconclusive [inhibitor, partial curve]"
5,CC(C)C(C)(C#N)NC(=O)CSc1nc2scc(-c3ccc(F)cc3)c2c(=O)n1Cc1ccccc1 (stereo not drawn),"inconclusive [inhibitor, single point]"
6,CN(Cc1cn(-c2ccccc2)nc1-c1ccc2c(c1)OCO2)Cc1nccn1C,active: 11.2 µM
7,Cc1ccc([N+](=O)[O-])cc1N(CC(=O)Nc1ccc(S(=O)(=O)Nc2cccc(C(F)(F)F)c2)cc1)S(C)(=O)=O,"inconclusive [inhibitor, partial curve]"
8,CCOC(=O)Nc1ccc(C(=O)Oc2ccccc2)c(O)c1,inactive
9,CCC(C)c1ccccc1N1CC(C(=O)Nc2cccc(S(=O)(=O)N3CCOCC3)c2)CC1=O (stereo not drawn),"inconclusive [inhibitor, partial curve, poor fit]"
10,Cc1nc2ccccc2n1/N=C/c1ccc([N+](=O)[O-])s1,active: 6.31 µM
11,Cn1c(/C=C(\C#N)C(N)=S)ccc1-c1ccc(Br)cc1,"inconclusive [inhibitor, partial curve]"
12,Cc1cc(C)cc(NC(=S)NCC2CCN(C(C)c3ccccc3)C2)c1 (stereo not drawn),"inconclusive [inhibitor, single point]"
13,CCc1nnc(NC(=O)CSc2nc3cccnc3n2C2CCCCC2)s1,"inconclusive [inhibitor, single point]"
14,CC(C)CCNC(=S)NC1CCCC1,"inconclusive [inhibitor, single point]"
15,CCOC(=O)C1=C(CP(=O)(c2ccccc2)c2ccccc2)NC(=O)NC1c1ccc(OC)cc1 (stereo not drawn),inactive
16,Cc1ccc(NC(=S)C2=C(O)c3ccccc3N(C)S2(=O)=O)cc1,active: 17.8 µM
17,CCOC(=O)c1c(NC(=S)Nc2ccc(OC)cc2)sc2c1CCCCC2,"inconclusive [activator, single point]"
18,Cn1cc(C(=O)O)c(-c2ccc3c(c2)OCCCO3)n1,inactive
19,COc1ccc(-c2nnc(NC(=O)c3ccc(S(=O)(=O)N4CCCc5ccccc54)cc3)o2)cc1,active: 0.501 µM
20,Cc1noc(C)c1COC(=O)c1cccnc1SCC(=O)Nc1ccc2c(c1)OCO2,inactive
21,O=P(O)(O)c1cc(-c2ccccc2)oc1-c1ccccc1,inactive
22,Cc1ccc(O)c(-c2cc3ccccc3[nH]2)c1,"inconclusive [inhibitor, single point]"
23,COc1ccc(-c2cc(-c3ccc(Cl)cc3)n[nH]2)c(O)c1,"inconclusive [inhibitor, single point]"
